# Source: the supplement of paper PMC8728848
# The other results are listed elsewhere or left out.
# Legend:
# Test in all cases: glycan array binding signal (z-score within array); higher = stronger binding
# Conditions in all cases: glycan notation: IUPAC condensed, linker removed
# Gal(a1-3)Gal(b1-4)GlcNAc = biological target: Gal(a1-3)Gal(b1-4)GlcNAc
# How it was run: (§1)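 The Consortium for Functional Glycomics database supplied 3228 glycan arrays, of which those lacking an available protein sequence were dropped. The binding signal, a within-array Z-score, was averaged across arrays of the same protein sequence and across linkers. Negative scores can be read as non-binding.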
# [1] = biological target: Gal(a1-3)Gal(b1-4)GlcNAc(b1-2)Man
# How it was run: as §1
# [2] = biological target: Gal(a1-3)Gal(b1-4)GlcNAc(b1-2)Man(a1-3)[Gal(a1-3)Gal(b1-4)GlcNAc(b1-2)Man(a1-6)]Man(b1-4)GlcNAc(b1-4)GlcNAc
# How it was run: as §1
# [3] = biological target: Gal(a1-3)Gal(b1-4)GlcNAc(b1-3)GalNAc
# How it was run: as §1
# [4] = biological target: Gal(a1-3)Gal(b1-4)GlcNAc(b1-6)GalNAc
# How it was run: as §1
# [5] = biological target: Gal(a1-3)Gal(b1-4)[Fuc(a1-3)]GlcNAc
# How it was run: as §1
# [6] = biological target: Gal(a1-3)Gal(b1-4)[Fuc(a1-3)]GlcNAc(b1-2)Man(a1-3)[Gal(a1-3)Gal(b1-4)[Fuc(a1-3)]GlcNAc(b1-2)Man(a1-6)]Man(b1-4)GlcNAc(b1-4)GlcNAc
# How it was run: as §1
# Gal(a1-3)GalNAc = biological target: Gal(a1-3)GalNAc
# How it was run: as §1
# [7] = biological target: Gal(a1-3)[Gal(a1-4)]Gal(b1-4)GlcNAc
# How it was run: as §1
# [8] = biological target: Gal(a1-4)Gal(b1-3)GlcNAc(b1-2)Man(a1-3)[Gal(a1-4)Gal(b1-3)GlcNAc(b1-2)Man(a1-6)]Man(b1-4)GlcNAc(b1-4)GlcNAc
# How it was run: as §1
# Gal(a1-4)Gal(b1-4)Glc = biological target: Gal(a1-4)Gal(b1-4)Glc
# How it was run: as §1
# Gal(a1-4)Gal(b1-4)GlcNAc = biological target: Gal(a1-4)Gal(b1-4)GlcNAc
# How it was run: as §1
# [9] = biological target: Gal(a1-4)Gal(b1-4)GlcNAc(b1-2)Man(a1-3)[Gal(a1-4)Gal(b1-4)GlcNAc(b1-2)Man(a1-6)]Man(b1-4)GlcNAc(b1-4)GlcNAc
# How it was run: as §1
# [10] = biological target: Gal(a1-4)Gal(b1-4)GlcNAc(b1-3)Gal(b1-4)Glc
# How it was run: as §1
# Gal(a1-4)GlcNAc = biological target: Gal(a1-4)GlcNAc
# How it was run: as §1
# Gal(a1-6)Glc = biological target: Gal(a1-6)Glc
# How it was run: as §1
# Gal(b1-2)Gal = biological target: Gal(b1-2)Gal
# How it was run: as §1
# Gal(b1-3)Gal = biological target: Gal(b1-3)Gal
# How it was run: as §1
# Gal(b1-3)Gal(b1-4)GlcNAc = biological target: Gal(b1-3)Gal(b1-4)GlcNAc
# How it was run: as §1
# Gal(b1-3)GalNAc = biological target: Gal(b1-3)GalNAc
# How it was run: as §1
# [11] = biological target: Gal(b1-3)GalNAc(a1-3)[Fuc(a1-2)]Gal(b1-4)Glc
# How it was run: as §1
# [12] = biological target: Gal(b1-3)GalNAc(a1-3)[Fuc(a1-2)]Gal(b1-4)GlcNAc
# How it was run: as §1
# Gal(b1-3)GalNAc(b1-3)Gal = biological target: Gal(b1-3)GalNAc(b1-3)Gal
# How it was run: as §1
# [13] = biological target: Gal(b1-3)GalNAc(b1-3)Gal(a1-4)Gal(b1-4)Glc
# How it was run: as §1
# [14] = biological target: Gal(b1-3)GalNAc(b1-4)Gal(b1-4)Glc
# How it was run: as §1
# [15] = biological target: Gal(b1-3)GalNAc(b1-4)[Neu5Ac(a2-3)]Gal(b1-4)Glc
# How it was run: as §1
# Gal(b1-3)GlcNAc = biological target: Gal(b1-3)GlcNAc
# How it was run: as §1
# [16] = biological target: Gal(b1-3)GlcNAc(a1-3)Gal(b1-4)GlcNAc
# How it was run: as §1
# [17] = biological target: Gal(b1-3)GlcNAc(a1-6)Gal(b1-4)GlcNAc
# How it was run: as §1
# Gal(b1-3)GlcNAc(b1-2)Man = biological target: Gal(b1-3)GlcNAc(b1-2)Man
# How it was run: as §1
# [18] = biological target: Gal(b1-3)GlcNAc(b1-2)Man(a1-3)[Gal(b1-3)GlcNAc(b1-2)Man(a1-6)]Man(b1-4)GlcNAc(b1-4)GlcNAc
# How it was run: as §1
# [19] = biological target: Gal(b1-3)GlcNAc(b1-2)Man(a1-3)[Gal(b1-3)GlcNAc(b1-2)Man(a1-6)]Man(b1-4)GlcNAc(b1-4)[Fuc(a1-6)]GlcNAc
# How it was run: as §1
# [20] = biological target: Gal(b1-3)GlcNAc(b1-2)Man(a1-3)[GlcNAc(b1-4)][Gal(b1-3)GlcNAc(b1-2)Man(a1-6)]Man(b1-4)GlcNAc(b1-4)GlcNAc
# How it was run: as §1
# [21] = biological target: Gal(b1-3)GlcNAc(b1-2)[Gal(b1-3)GlcNAc(b1-6)]Man(a1-6)[Gal(b1-3)GlcNAc(b1-2)Man(a1-3)]Man(b1-4)GlcNAc(b1-4)GlcNAc
# How it was run: as §1
# [22] = biological target: Gal(b1-3)GlcNAc(b1-3)Gal(b1-3)GlcNAc
# How it was run: as §1
# [23] = biological target: Gal(b1-3)GlcNAc(b1-3)Gal(b1-4)Glc
# How it was run: as §1
# [24] = biological target: Gal(b1-3)GlcNAc(b1-3)Gal(b1-4)GlcNAc
# How it was run: as §1
# [25] = biological target: Gal(b1-3)GlcNAc(b1-3)Gal(b1-4)GlcNAc(b1-2)Man(a1-3)[Gal(b1-3)GlcNAc(b1-3)Gal(b1-4)GlcNAc(b1-2)Man(a1-6)]Man(b1-4)GlcNAc(b1-4)GlcNAc
# How it was run: as §1
# [26] = biological target: Gal(b1-3)GlcNAc(b1-3)Gal(b1-4)GlcNAc(b1-2)[Gal(b1-3)GlcNAc(b1-3)Gal(b1-4)GlcNAc(b1-6)]Man(a1-6)[Gal(b1-3)GlcNAc(b1-3)Gal(b1-4)GlcNAc(b1-2)Man(a1-3)]Man(b1-4)GlcNAc(b1-4)[Fuc(a1-6)]GlcNAc
# How it was run: as §1
# [27] = biological target: Gal(b1-3)GlcNAc(b1-3)Gal(b1-4)GlcNAc(b1-3)Gal(b1-4)GlcNAc(b1-2)[Gal(b1-3)GlcNAc(b1-3)Gal(b1-4)GlcNAc(b1-3)Gal(b1-4)GlcNAc(b1-6)]Man(a1-6)[Gal(b1-3)GlcNAc(b1-3)Gal(b1-4)GlcNAc(b1-3)Gal(b1-4)GlcNAc(b1-2)Man(a1-3)]Man(b1-4)GlcNAc(b1-4)[Fuc(a1-6)]GlcNAc
# How it was run: as §1
# [28] = biological target: Gal(b1-3)GlcNAc(b1-3)Gal(b1-4)GlcNAc(b1-6)[Gal(b1-3)GlcNAc(b1-3)]Gal(b1-4)Glc
# How it was run: as §1
# [29] = biological target: Gal(b1-3)GlcNAc(b1-3)Gal(b1-4)[Fuc(a1-3)]GlcNAc
# How it was run: as §1
# [30] = biological target: Gal(b1-3)GlcNAc(b1-3)Gal(b1-4)[Fuc(a1-3)]GlcNAc(b1-6)[Gal(b1-3)GlcNAc(b1-3)]Gal(b1-4)Glc
# How it was run: as §1
# [31] = biological target: Gal(b1-3)GlcNAc(b1-3)GalNAc
# How it was run: as §1
# [32] = biological target: Gal(b1-3)GlcNAc(b1-6)Gal(b1-4)GlcNAc
# How it was run: as §1
binder,measurement,setting,value
"HA-11100 (Pseudomonas aeruginosa), Q02G51_PSEAB (protein) QFNPNEIKISQQGKTTLIDQSTQRAIINWKGFDVSADEAVRFNQPGVTSSTLNRVTAGQESVIAGRISAPGQVIIYNSNGVVFSGSAKVDVGSLITTTANISDEHFRQGKLIFDQPGNPDARIVNDGSISVAEKGLAAFVAPSVANNGVINARLGTVAMAAGNAATIDLYG",glycan array binding signal (z-score),Gal(a1-3)Gal(b1-4)GlcNAc,-0.313
same,glycan array binding signal (z-score),[1],-0.276
same,glycan array binding signal (z-score),[2],3.53
same,glycan array binding signal (z-score),[3],-0.163
same,glycan array binding signal (z-score),[4],0.19
same,glycan array binding signal (z-score),[5],-0.245
same,glycan array binding signal (z-score),[6],0.608
same,glycan array binding signal (z-score),Gal(a1-3)GalNAc,-0.213
same,glycan array binding signal (z-score),[7],0.081
same,glycan array binding signal (z-score),[8],3.02
same,glycan array binding signal (z-score),Gal(a1-4)Gal(b1-4)Glc,-0.019
same,glycan array binding signal (z-score),Gal(a1-4)Gal(b1-4)GlcNAc,0.223
same,glycan array binding signal (z-score),[9],2.62
same,glycan array binding signal (z-score),[10],-0.459
same,glycan array binding signal (z-score),Gal(a1-4)GlcNAc,0.177
same,glycan array binding signal (z-score),Gal(a1-6)Glc,0.121
same,glycan array binding signal (z-score),Gal(b1-2)Gal,-0.225
same,glycan array binding signal (z-score),Gal(b1-3)Gal,-0.091
same,glycan array binding signal (z-score),Gal(b1-3)Gal(b1-4)GlcNAc,-0.039
same,glycan array binding signal (z-score),Gal(b1-3)GalNAc,-0.172
same,glycan array binding signal (z-score),[11],-0.071
same,glycan array binding signal (z-score),[12],-0.027
same,glycan array binding signal (z-score),Gal(b1-3)GalNAc(b1-3)Gal,-0.426
same,glycan array binding signal (z-score),[13],0.18
same,glycan array binding signal (z-score),[14],-0.029
same,glycan array binding signal (z-score),[15],-0.426
same,glycan array binding signal (z-score),Gal(b1-3)GlcNAc,-0.239
same,glycan array binding signal (z-score),[16],-0.369
same,glycan array binding signal (z-score),[17],-0.297
same,glycan array binding signal (z-score),Gal(b1-3)GlcNAc(b1-2)Man,1.26
same,glycan array binding signal (z-score),[18],2.74
same,glycan array binding signal (z-score),[19],1.03
same,glycan array binding signal (z-score),[20],0.437
same,glycan array binding signal (z-score),[21],0.079
same,glycan array binding signal (z-score),[22],-0.603
same,glycan array binding signal (z-score),[23],-0.305
same,glycan array binding signal (z-score),[24],-0.298
same,glycan array binding signal (z-score),[25],-0.053
same,glycan array binding signal (z-score),[26],0.938
same,glycan array binding signal (z-score),[27],0.491
same,glycan array binding signal (z-score),[28],0.224
same,glycan array binding signal (z-score),[29],0.385
same,glycan array binding signal (z-score),[30],-0.157
same,glycan array binding signal (z-score),[31],0.562
same,glycan array binding signal (z-score),[32],-0.289
